# Laboratory results reported in PubChem BioAssay AID624417 (National Center for Advancing Translational Sciences (NCATS), 2012).
# Values joined by “and” are separate entries in the source; they are usually repeats but may differ in a detail not shown here. Identical values can stand only once. Out of some 410,000 compounds screened, about 6,400 (1.6%) were called active. Inconclusive results, whose numbers are uncertain, are shown with a selection of clear calls. Calls follow the shape of the dose curve; as a rule, active = well fitted inhibition curve with a large enough effect; inconclusive = small, poorly fitted or top-dose-only effect; inactive = no such curve, though single readings can be large or run the other way. Potencies of inconclusive entries are doubtful fits and often do not repeat.
# Molecular target: Glucagon-like peptide 1 receptor (Homo sapiens) (UniProt P43220)
# UniProt P43220, sequence (P43220 whole entry, looked up): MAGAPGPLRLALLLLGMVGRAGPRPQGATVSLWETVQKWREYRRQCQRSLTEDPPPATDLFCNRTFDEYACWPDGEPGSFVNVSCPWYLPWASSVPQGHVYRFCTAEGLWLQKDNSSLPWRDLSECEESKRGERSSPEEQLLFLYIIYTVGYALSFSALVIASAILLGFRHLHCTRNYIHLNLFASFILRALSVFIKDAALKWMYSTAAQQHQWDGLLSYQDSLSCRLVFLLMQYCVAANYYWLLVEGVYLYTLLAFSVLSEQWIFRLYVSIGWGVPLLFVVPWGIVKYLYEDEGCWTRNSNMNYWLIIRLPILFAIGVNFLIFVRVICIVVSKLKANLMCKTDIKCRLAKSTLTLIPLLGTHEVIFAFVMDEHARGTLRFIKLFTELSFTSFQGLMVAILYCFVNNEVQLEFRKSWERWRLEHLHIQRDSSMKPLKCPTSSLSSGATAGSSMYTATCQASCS
# Assay: qHTS of GLP-1 Receptor Inverse Agonists (Inhibition Mode); also: nearly all actives have a fitted effect of over 55% in size
# Details: HEK293 GLP-1R CRE-luciferase, luminescence, 24 h, GLP-1R form is constitutively active; activity change, negative = inhibition: at 38.3 µM (top of the series) unless noted
# How it was run: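 GLP-1R inverse agonism mode: basal reporter luminescence in engineered HEK293 cells measured after one day of compound exposure at 37 deg C, with a 12 min room-temperature detection step.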
# % is scaled to controls: 0 for no effect and ±100 for the full control effect; potency is read from the fitted curve at half-maximal effect; tags tell the direction and shape of the fitted curve.
Compound,Potency,"activity change, negative = inhibition"
N#Cc1ccc(-c2ccccc2)nc1SCC(=O)c1cc2ccccc2oc1=O,"inconclusive: 11.2 µM [inhibitor, partial curve, poor fit]",–
O=C(Nc1ccc(NC(=S)NC(=O)c2ccccc2F)cc1)c1cccs1,"inconclusive: 14.1 µM [inhibitor, single point]",–
COc1ccc(C(=O)NC2CCN(S(=O)(=O)c3ccccc3F)CC2)cc1,"inconclusive: 8.91 µM [inhibitor, partial curve, poor fit]",–
Cc1c(C(=O)N2CC(C(=O)N3CCCCC3)Oc3ccccc32)oc2ccccc12 (stereo unspecified),"inconclusive: 17.8 µM [inhibitor, partial curve, poor fit]",–
Cc1ccc(Cn2c(CN3CCC(C(=O)NCC(C)c4ccccc4)CC3)cc3ccccc32)cc1 (stereo unspecified),–,inactive: -6.74%
CC(C)Cc1ccc(C2=CSC3=NCCN23)cc1,"inconclusive: 3.55 µM [inhibitor, full curve]",–
C[C@](N)(Cc1ccc(O)c(O)c1)C(=O)O,–,inactive: 13.1%
O=S(=O)(NCC(c1ccccc1)N1CCC(O)CC1)c1ccc(Cl)cc1 (stereo unspecified),"inconclusive: 31.6 µM [inhibitor, single point]",–
COc1ccc(NS(=O)(=O)c2ccc(C)c(C(=O)NNC(=O)c3ccccc3O)c2)cc1,"inconclusive: 28.2 µM [inhibitor, single point]",–
COc1ccc(C2=Cc3ccccc3C(CC(=O)C3CC3)N2c2ccc(C#CCCO)cc2)cc1 (stereo unspecified),"inconclusive: 28.2 µM [inhibitor, single point]",–
Cc1noc(C)c1S(=O)(=O)N(CC(=O)Nc1ccc2c(c1)OCCO2)c1ccc(C(C)C)cc1,"inconclusive: 2.82 µM [inhibitor, full curve, poor fit]",–
O=C(NCC(c1ccco1)N1CCCCC1)c1ccc([N+](=O)[O-])s1 (stereo unspecified),"inconclusive: 11.2 µM [inhibitor, partial curve, poor fit]",–
CN1CCN(c2ncnc3sc(-c4ccccc4)cc23)CC1,"inconclusive: 28.2 µM [inhibitor, single point]",–
COc1ccc(Cl)cc1NC(=O)Cn1nnc(C(=O)NCc2ccc3c(c2)OCO3)c1N,"inconclusive: 12.6 µM [inhibitor, single point] and inconclusive: 708 nM [inhibitor, full curve, poor fit]",–
CCCNC(=O)C[C@@H]1CC[C@@H]2[C@H](COC[C@H](O)CN2C(=O)c2cc(Cl)cc(Cl)c2)O1,–,inactive: 10.5%
CCCN(Cc1ccccc1)C(=S)Nc1ccc(OC(F)F)cc1,"inconclusive: 20 µM [inhibitor, single point]",–
